# Experimental data taken from US20260137703A1, “2-AMINO-PYRIDO[2,3-D]PYRIMIDIN-7(8H)-ONE AND 7-AMINO-1-PYRIMIDO[4,5-D]PYRIMIDIN-2(1 H)-ONE DERIVATIVES AS EGFR INHIBITORS FOR THE TREATMENT OF CANCER” (Cancer Research Technology Limited, priority 2022, published 2026).
# Biological target: CtermHisTag-mEGFR Triple Mutant (R797S, L858R, T790M) (Homo sapiens, UniProt P00533, C797S/L858R/T790M)
# Assay: TR-FRET probe displacement, EGFR triple mutant
# Details: 1.25 nM EGFR, 100 nM probe, 30 mins room temperature
row,IC50,SMILES
1,100 to 1000 nM,"C#Cc1cc(=O)[nH]c2nc(Nc3ccccc3OC)ncc12 [Example 120, 5-ethynyl-2-((2-methoxyphenyl)amino)pyrido[2,3-d]pyrimidin-7(8H)-one]"
2,100 to 1000 nM,"C#Cc1c(-c2ccccc2)c(=O)n(C)c2nc(Nc3ccc(N(C)CCN(C)C)cc3OC)ncc12 [Example 121, 2-[(4-[[2-(dimethylamino)ethyl](methyl)amino]-2-methoxyphenyl)amino]-5-ethynyl-8-methyl-6-phenylpyrido[2,3-d]pyrimidin-7-one]"
3,20 to 100 nM,"C#Cc1c(-c2ccccc2Cl)c(=O)n(C)c2nc(Nc3ccc(N(C)CCN(C)C)cc3OC)ncc12 [Example 122, 6-(2-chlorophenyl)-2-[(4-[[2-(dimethylamino)ethyl](methyl)amino]-2-methoxyphenyl)amino]-5-ethynyl-8-methylpyrido[2,3-d]pyrimidin-7-one]"
4,100 to 1000 nM,"C#Cc1c(-c2ccccc2Cl)c(=O)n(C)c2nc(Nc3ccccc3OC)ncc12 [Example 123, 6-(2-chlorophenyl)-5-ethynyl-2-[(2-methoxyphenyl)amino]-8-methylpyrido[2,3-d]pyrimidin-7-one]"
5,20 to 100 nM,"C#Cc1c(-c2ccccc2Cl)c(=O)n(C)c2nc(Nc3ccccc3)ncc12 [Example 124, 6-(2-chlorophenyl)-5-ethynyl-8-methyl-2-(phenylamino)pyrido[2,3-d]pyrimidin-7-one]"
6,100 to 1000 nM,"C#Cc1c(-c2c(Cl)cccc2Cl)c(=O)n(C)c2nc(Nc3cccc(CO)c3)ncc12 [Example 125, 6-(2,6-dichlorophenyl)-5-ethynyl-2-{[3-(hydroxymethyl)phenyl]amino}-8-methylpyrido[2,3-d]pyrimidin-7-one]"
7,< 20 nM,C#Cc1c(-c2ccccc2Cl)c(=O)n(C)c2nc(Nc3ccc(N(C)CCN(C)C)cc3)ncc12 [Example 126]
8,< 20 nM,"C#Cc1c(-c2ccccc2Cl)c(=O)n(C)c2nc(Nc3ccc(N4CCN(C)CC4)cc3OC)ncc12 [Example 127, 6-(2-chlorophenyl)-5-ethynyl-2-{[2-methoxy-4-(4-methylpiperazin-1-yl)phenyl]amino}-8-methylpyrido[2,3-d]pyrimidin-7-one]"
9,< 20 nM,"C#Cc1c(-c2ccccc2Cl)c(=O)n(C)c2nc(Nc3ccc(N4CCN(C)CC4)cc3)ncc12 [Example 128, 6-(2-chlorophenyl)-5-ethynyl-8-methyl-2-{[4-(4-methylpiperazin-1-yl)phenyl]amino}pyrido[2,3-d]pyrimidin-7-one]"
10,< 20 nM,"C#Cc1c(-c2ccccc2Cl)c(=O)n(C)c2nc(Nc3ccc(OCCN(C)C)cc3)ncc12 [Example 129, 6-(2-chlorophenyl)-2-({4-[2-(dimethylamino)ethoxy]phenyl}amino)-5-ethynyl-8-methylpyrido[2,3-d]pyrimidin-7-one]"
11,100 to 1000 nM,"C#Cc1c(-c2ccccc2Cl)c(=O)n(C)c2nc(NCCCCN3CCN(C)CC3)ncc12 [Example 130, 6-(2-chlorophenyl)-5-ethynyl-8-methyl-2-{[4-(4-methylpiperazin-1-yl)butyl]amino}pyrido[2,3-d]pyrimidin-7-one]"
12,20 to 100 nM,"C#Cc1c(-c2ccccc2Cl)c(=O)n(C)c2nc(Nc3cccc(OC)c3)ncc12 [Example 131, 6-(2-chlorophenyl)-5-ethynyl-2-[(3-methoxyphenyl)amino]-8-methylpyrido[2,3-]pyrimidin-7-one]"
13,< 20 nM,"C#Cc1c(-c2ccccc2Cl)c(=O)n(C)c2nc(Nc3cccc(CO)c3)ncc12 [Example 132, 6-(2-chlorophenyl)-5-ethynyl-2-{[3-(hydroxymethyl)phenyl]amino}-8-methylpyrido[2,3-]pyrimidin-7-one]"
14,< 20 nM,"C#Cc1c(-c2ccccc2Cl)c(=O)n(C)c2nc(Nc3ccc(N(C)CCN(C)C)c(C)c3)ncc12 [Example 133, 6-(2-chlorophenyl)-2-[(4-{[2-(dimethylamino)ethyl](methyl)amino}-3-methylphenyl)amino]-5-ethynyl-8-methylpyrido[2,3-d]pyrimidin-7-one]"
15,100 to 1000 nM,"C#Cc1c(-c2c(Cl)cccc2Cl)c(=O)n(C)c2nc(Nc3ccc(N(C)CCN(C)C)cc3)ncc12 [Example 134, 6-(2,6-dichlorophenyl)-2-[(4-{[2-(dimethylamino)ethyl](methyl)amino}phenyl)amino]-5-ethynyl-8-methylpyrido[2,3-d]pyrimidin-7-one]"
16,< 20 nM,"C#Cc1c(-c2cccc(F)c2Cl)c(=O)n(C)c2nc(Nc3ccc(N(C)CCN(C)C)cc3)ncc12 [Example 135, 6-(2-chloro-3-fluorophenyl)-2-[(4-{[2-(dimethylamino)ethyl](methyl)amino}phenyl)amino]-5-ethynyl-8-methylpyrido[2,3-d]pyrimidin-7-one]"
17,< 20 nM,"C#Cc1c(-c2cc(OC)ccc2Cl)c(=O)n(C)c2nc(Nc3ccc(N(C)CCN(C)C)cc3)ncc12 [Example 136, 6-(2-chloro-5-methoxyphenyl)-2-[(4-{[2-(dimethylamino)ethyl](methyl)amino}phenyl)amino]-5-ethynyl-8-methylpyrido[2,3-d]pyrimidin-7-one]"
18,< 20 nM,"C#Cc1c(-c2cc(F)ccc2Cl)c(=O)n(C)c2nc(Nc3ccc(N(C)CCN(C)C)cc3)ncc12 [Example 137, 6-(2-chloro-5-fluorophenyl)-2-[(4-{[2-(dimethylamino)ethyl](methyl)amino}phenyl)amino]-5-ethynyl-8-methylpyrido[2,3-d]pyrimidin-7-one]"

row,IC50,SMILES
1,1000 to 50000 nM,"C#Cc1c(-c2ccccc2OC)c(=O)n(C)c2nc(Nc3ccc(N(C)CCN(C)C)cc3)ncc12 [Example 138, 2-[(4-{[2-(dimethylamino)ethyl](methyl)amino}phenyl)amino]-5-ethynyl-6-(2-methoxyphenyl)-8-methylpyrido [2,3-d]pyrimidin-7-one]"
2,< 20 nM,"C#Cc1c(-c2ccncc2Cl)c(=O)n(C)c2nc(Nc3ccc(N(C)CCN(C)C)cc3)ncc12 [Example 139, 6-(3-chloropyridin-4-yl)-2-[(4-{[2-(dimethylamino)ethyl](methyl)amino}phenyl)amino]-5-ethynyl-8-methylpyrido [2,3-d]pyrimidin-7-one]"
3,1000 to 50000 nM,"C#Cc1c(Cc2ccccc2)c(=O)n(C)c2nc(Nc3ccc(N(C)CCN(C)C)cc3OC)ncc12 [Example 140, 6-benzyl-2-[(4-[[2-(dimethylamino)ethyl](methyl)amino]-2-methoxyphenyl)amino]-5-ethynyl-8-methylpyrido[2,3-d]pyrimidin-7-one]"
4,20 to 100 nM,"C#Cc1c(C(=O)NC)c(=O)n(-c2ccccc2)c2nc(Nc3ccccc3OC)ncc12 [Example 141, 5-ethynyl-2-[(2-methoxyphenyl)amino]-N-methyl-7-oxo-8-phenylpyrido[2,3-d]pyrimidine-6-carboxamide]"
5,100 to 1000 nM,"C#Cc1c(N)c(=O)n(-c2ccccc2)c2nc(Nc3ccccc3OC)ncc12 [Example 142, 6-amino-5-ethynyl-2-[(2-methoxyphenyl)amino]-8-phenylpyrido[2,3-d]pyrimidin-7-one]"
6,20 to 100 nM,"C#Cc1c(NC(C)=O)c(=O)n(-c2ccccc2)c2nc(Nc3ccccc3OC)ncc12 [Example 143, N-[5-ethynyl-2-[(2-methoxyphenyl)amino]-7-oxo-8-phenylpyrido[2,3-d]pyrimidin-6-yl]acetamide]"
7,20 to 100 nM,"C#Cc1c(Nc2ccccc2)c(=O)n(C)c2nc(Nc3ccc(N(C)CCN(C)C)cc3)ncc12 [Example 144, 2-[(4-{[2-(dimethylamino)ethyl](methyl)amino}phenyl)amino]-5-ethynyl-8-methyl-6-(phenylamino)pyrido[2,3-d]pyrimidin-7-one]"
8,< 20 nM,"C#Cc1c(C#N)c(=O)n(-c2ccccc2)c2nc(Nc3ccccc3OC)ncc12 [Example 145, 5-ethynyl-2-[(2-methoxyphenyl)amino]-7-oxo-8-phenylpyrido[2,3-d]pyrimidine-6-carbonitrile]"
9,1000 to 50000 nM,"C#Cc1c(C(=O)N(C)C)c(=O)n(-c2ccccc2)c2nc(Nc3ccccc3OC)ncc12 [Example 146, 5-ethynyl-2-[(2-methoxyphenyl)amino]-N,N-dimethyl-7-oxo-8-phenylpyrido[2,3-d]pyrimidine-6-carboxamide]"
10,100 to 1000 nM,"C#Cc1c(N(C)C)c(=O)n(-c2ccccc2)c2nc(Nc3ccccc3OC)ncc12 [Example 147, 6-(dimethylamino)-5-ethynyl-2-[(2-methoxyphenyl)amino]-8-phenylpyrido[2,3-d]pyrimidin-7-one]"
11,100 to 1000 nM,"C#Cc1c(C2CC2)c(=O)n(C)c2nc(Nc3ccc(N4CCN(C)CC4)cc3)ncc12 [Example 148, 6-cyclopropyl-5-ethynyl-8-methyl-2-{[4-(4-methylpiperazin-1-yl)phenyl]amino}pyrido[2,3-d]pyrimidin-7-one]"
12,20 to 100 nM,"C#Cc1c(C)c(=O)n(C)c2nc(Nc3ccc(N4CCN(C)CC4)cc3)ncc12 [Example 149, 5-ethynyl-6,8-dimethyl-2-{[4-(4-methylpiperazin-1-yl)phenyl]amino}pyrido[2,3-d]pyrimidin-7-one]"
13,< 20 nM,"C#Cc1c(-c2cccs2)c(=O)n(C)c2nc(Nc3ccc(N4CCN(C)CC4)cc3)ncc12 [Example 150, 5-ethynyl-8-methyl-2-{[4-(4-methylpiperazin-1-yl)phenyl]amino}-6-(thiophen-2-yl)pyrido[2,3-d]pyrimidin-7-one]"
14,20 to 100 nM,"C#Cc1c(C)c(=O)n(-c2ccccc2)c2nc(Nc3ccc(N4CCN(C)CC4)cc3)ncc12 [Example 151, 5-Ethynyl-6-methyl-2-{[4-(4-methylpiperazin-1-yl)phenyl]amino}-8-phenylpyrido[2,3-d]pyrimidin-7-one]"
15,1000 to 50000 nM,"C=Cc1cc(=O)n(-c2ccccc2)c2nc(Nc3ccccc3OC)ncc12 [Example 152, 5-ethenyl-2-[(2-methoxyphenyl)amino]-8-phenylpyrido[2,3-d]pyrimidin-7-one]"
16,1000 to 50000 nM,"C=Cc1cc(=O)n(-c2ccccc2OC)c2nc(Nc3ccccc3OC)ncc12 [Example 153, 8-(2-Methoxyphenyl)-2-((2-methoxyphenyl)amino)-5-vinylpyrido[2,3-d]pyrimidin-7(8H)-one]"
17,1000 to 50000 nM,"C=Cc1cc(=O)n(-c2ccc(OC)cc2OC)c2nc(Nc3ccccc3OC)ncc12 [Example 154, 8-(2,4-dimethoxyphenyl)-5-ethenyl-2-[(2-methoxyphenyl)amino]pyrido[2,3-d]pyrimidin-7-one]"
